Structures are written as SMILES. The whole screen tested about 44,000 compounds, of which about 340 (0.77%) were called active. Not shown: some 5% with an inconclusive outcome. Calls come from the whole dose curve; as a rule, active = well fitted inhibition curve with a large enough effect; inconclusive = small, poorly fitted or top-dose-only effect; inactive = flat fitted curve, though single readings scatter. The list shows a part of the results.
Potency is the fitted concentration of half-maximal effect.

The nature of this test: Acumen qHTS Assay for Inhibitors of the mTORC1 Signaling Pathway in MEF (Tsc2-/-, p53-/-) Cells: Sytravon.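 For activity change, negative = inhibition: plate controls were DMSO for no effect and rapamycin for full effect.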 Note: nearly all actives have a fitted effect of over 50% in size. Conditions: phospho-rpS6 immunofluorescence/PI, 24 h; series mostly up to 38.3 µM; activity change, negative = inhibition: at the top concentration. The method, boiled down:
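Compounds act on Tsc2-/-, p53-/- fibroblasts carrying an empty vector for 24 h before fixation and dual staining for phospho-S6 and DNA (propidium iodide). Values are percentages of cells above a rapamycin-defined pS6/PI threshold.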
As to `O=C(NCCc1ccccc1)C1CCN(c2ncnc3c2nc2n3CCCCC2)CC1`, the “activity change, negative = inhibition” value is inactive: -12.1%.
Same read-out and setting: for `COc1ccc(NC(=O)CSC2=Nc3ccccc3C3=NC(CCC(=O)NCc4cccs4)C(=O)N23)cc1` (stereo not drawn) the value was inactive: -9.26%; for `Cc1ccc(C)c(Cn2c3ccccc3c3cnn(CC(=O)NC4CCC(C)CC4)c(=O)c32)c1` (stereo not drawn), inactive: -1.12%; for `CC1=C(C(=O)NCc2cccc(Br)c2)C2(CCCCC2)OC1=O`, inactive: 3.06%.
As for `CCCCOC(=O)/C(C#N)=C/c1ccc(-c2cccc(C(F)(F)F)c2)o1`, the “activity change, negative = inhibition” value is inactive: 8.97%.
The same measure, in the same setting: under `CCOc1ccc(-c2nonc2NC(=O)c2ccco2)cc1` stands inactive: 0.175%; under `CCOc1ccc(NC(=O)CSc2nc3c(oc4ccccc43)c(=O)n2-c2cc(C)cc(C)c2)cc1`, inactive: 0.8%; under `COc1cc(/C=C/c2nc(C#N)c(N3CCCCC3)o2)cc(OC)c1OC`, inactive: -0.447%.
For `Cc1ccccc1CNC(=O)C1CCN(S(=O)(=O)Cc2ccccc2)CC1`, the “activity change, negative = inhibition” value is inactive: -5.55%.
On the same count and under the same terms, for `Cc1nnc(N2CCC(C(=O)Nc3ccc(F)cc3)CC2)c2nn(-c3ccc(Cl)cc3)c(C)c12` the value was inactive: -22.5%; for `Cc1ccc(C(=O)Nc2c(-c3ccccc3)nc3ccccn23)cc1`, inactive: -12%; for `Cc1ccc(C2c3[nH]c4ccccc4c3CCN2C(=O)c2ccccc2Br)cc1` (stereo not drawn), inactive: 2.6%.
For the compound `CCC(C(=O)OCc1cc(=O)n2nc(C)sc2n1)c1ccccc1` (stereo not drawn), the “activity change, negative = inhibition” value is inactive: 3.44%.
Turning to `Cc1cccc(-c2noc(CN(C3CCCCC3)S(=O)(=O)c3ccc(F)cc3)n2)c1`, the “activity change, negative = inhibition” value is inactive: -16.4%.
On the same count and under the same terms, for `COc1ccc(OC)c(NC(=O)c2c(NCc3sccc3C)sc3c2CCCCC3)c1` the value was inactive: -13.6%; for `COc1ccc2c(c1)-c1nc(NC(=O)c3ccc(OC)c(Br)c3)sc1CC2`, inactive: -16.8%.
Take `COc1ccc(CNC(=O)CN(c2ccc(C(C)C)cc2)S(=O)(=O)c2c(C)nn(C)c2C)cc1`: the “activity change, negative = inhibition” value is inactive: -5.61%.
Same read-out and setting: under `COc1ccc(NC(=O)CSc2nc3ccccc3nc2N2CCC(C)CC2)cc1` stands inactive: -1.16%; under `Cc1cc(C)c(C)c(OCC(=O)Nc2ccc(S(=O)(=O)Nc3nc(C)cc(C)n3)cc2)c1`, inactive: 0.785%.
Same read-out and setting: under `COc1ccccc1NC(=O)CCn1nc(-c2ccccc2OC)c2c(C)cc(C)nc21` stands inactive: 1.19%.
Consider `Cc1ccccc1NC(=O)Nc1nnc(N2CCCCCC2)s1`, for which the “activity change, negative = inhibition” value was inactive: -6.19%.
Still for that read-out and setting: under `CCC(=O)N1CCc2cc(Br)cc(S(=O)(=O)CCC(=O)N3CCN(c4ccc(F)cc4)CC3)c21` stands inactive: 0%.
Same read-out and setting: under `Cc1ccccc1OCC(=O)OCc1cc(=O)n2nc(C3CC3)sc2n1` stands inactive: -1.72%; under `O=C(CSC1=Nc2ccccc2N=C(c2ccc(F)cc2)C1)Nc1cccc(C(F)(F)F)c1`, inactive: -6.3%.
The same measure, in the same setting: under `CCOC(=O)C1CCCN(C(=O)C2CCN(S(=O)(=O)c3c(C)noc3/C=C/c3ccccc3F)CC2)C1` (stereo not drawn) stands inactive: -1.45%; under `CCc1ccc(NC(=O)CC2C(=O)N(c3cccc(C)c3)C(=O)N2CCC(C)C)cc1` (stereo not drawn), inactive: 0.684%; under `COc1ccc(CC(=O)NCCc2sc3nc(-c4ccc(OC)cc4)nn3c2C)cc1`, inactive: -0.767%.
As for `CCCN(CCC)CCCNC(=O)c1cn(CC)c2ccc(S(=O)(=O)N(C)C3CCCCC3)cc2c1=O`, the “activity change, negative = inhibition” value was inactive: 0.251%.
The same measure, in the same setting: under `CCc1ccc(OCc2cc(=O)n3c4c(sc3n2)CCCC4)cc1` stands inactive: -13.8%; under `COc1cccc(N2CCN(C(=O)C3Cc4ccccc4N3C(C)=O)CC2)c1` (stereo not drawn), inactive: 0.473%.
Same read-out and setting: for `O=C(C1CCC1)N1CCCc2cc(S(=O)(=O)N3CCN(c4ccccc4)CC3)ccc21` the value was inactive: 0.805%; for `Cc1cccc(-c2nc3ccccc3n2Cc2ccccc2)c1`, inactive: -22.6%.
As for `CC(C)OC(=O)C(C(=O)C(F)(F)F)c1cc(NS(=O)(=O)c2ccc3c4c(cccc24)C(=O)N3)ccc1O` (stereo not drawn), the “activity change, negative = inhibition” value is inactive: -16.4%.
Still for that read-out and setting: under `CCOC(=O)c1c(C)[nH]c(CCC(=O)Nc2c(C)cccc2CC)c1C` stands inactive: -2.82%; under `CCNc1ncnc2c1nnn2C`, inactive: -0.492%.
Regarding `CCOC(=O)N1CCc2c(sc(NCc3cccc(F)c3)c2C(=O)Nc2ccc(OC)cc2OC)C1`, the “activity change, negative = inhibition” value is inactive: 1.67%.
In the case of `CCC(=O)Nc1ccccc1-c1nc2ccccc2n(CC(=O)c2ccc(Cl)cc2)c1=O`, the “activity change, negative = inhibition” value was inactive: 1.5%.
Still for that read-out and setting: under `COc1ccc2c(Sc3ccc(C)cc3)c(C(=O)NCc3ccc(F)cc3)[nH]c2c1` stands inactive: -0.862%; under `COc1ccccc1NC(=O)C1=C(C)Nc2nc(CCCO)nn2C1c1cccc(O)c1` (stereo not drawn), inactive: -21.1%; under `Cc1ccc(S(=O)(=O)N2CCCc3cc(NS(=O)(=O)c4cc(F)ccc4F)ccc32)cc1`, inactive: 16%.
The same measure, in the same setting: for `Cn1c(=O)c(=O)n(C)c2cc(S(=O)(=O)N3CCN(c4ccc(F)cc4)CC3)ccc21` the value was inactive: -5.16%; for `COc1cc(C2CC(=O)c3cnc(N4CCN(CCO)CC4)nc3C2)cc(OC)c1OC` (stereo not drawn), inactive: -22%.
Still for that read-out and setting: under `O=C(Nc1cccc(NC(=O)c2ccccc2F)c1)c1ccccc1` stands inactive: 11.8%.
Consider `O=C(Cn1cc(S(=O)(=O)N2CCCC2)c(S(=O)(=O)N2CCCC2)c1)Nc1ccccc1`, for which the “activity change, negative = inhibition” value was inactive: -2.15%.
On the same count and under the same terms, under `CC(C)c1ccc(NC(=O)CC2NCCNC2=O)cc1` (stereo not drawn) stands inactive: -4.06%; under `O=C(CSc1nc2c(oc3ccccc32)c(=O)n1-c1ccccc1)Nc1ccccc1F`, inactive: -3.55%; under `CCCC(=O)Nc1cc(C(=O)NCc2ccccc2)ccc1S(=O)(=O)c1ccc(Cl)cc1`, inactive: 0.956%.
In the case of `CCOC(=O)c1ccc(N2C(=O)c3n[nH]c(-c4ccco4)c3C2c2ccc(OCC)cc2)cc1` (stereo not drawn), the Potency is active: 13.1 µM.
